The list shows a part of the results. The energies were worked out here from pooled read counts, against the library average; single values are noisy.
What follows are sequences tested against T1, Pho4 (S. cerevisiae) (UniProt P07270) (assay: relative binding free energy (BET-seq); higher = weaker binding). Conditions: reference: library average.
T1 sequence: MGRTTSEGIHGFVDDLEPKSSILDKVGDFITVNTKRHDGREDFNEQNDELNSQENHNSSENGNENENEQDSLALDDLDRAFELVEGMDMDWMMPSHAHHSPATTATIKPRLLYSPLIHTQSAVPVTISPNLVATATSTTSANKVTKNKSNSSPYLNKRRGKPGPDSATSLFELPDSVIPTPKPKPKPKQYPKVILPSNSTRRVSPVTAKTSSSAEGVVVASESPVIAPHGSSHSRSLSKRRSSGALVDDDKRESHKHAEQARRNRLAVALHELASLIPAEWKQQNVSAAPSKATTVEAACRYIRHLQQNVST

Sequence	relative binding free energy [kcal/mol]
AGGGTCACGTGGCGTC	0.09
GCTCGCACGTGGGGTC	-0.06
GCTGGCACGTGTTGTT	-0.02
ATGTACACGTGGCATT	-0.04
TAAAGCACGTGGTGGC	-0.15
TCGTGCACGTGGTATA	-0.27
TATTCCACGTGGTGGC	0.12
GTTGACACGTGTTTTT	0.22
ACGGTCACGTGTTTGG	0.01
TGTTGCACGTGGATTT	0.08
TGGGACACGTGCAGCG	0.01
AGTGGCACGTGATCTA	0.08
TGGTGCACGTGTATGA	0.03
TATAACACGTGTGTCT	-0.03
GGAGTCACGTGGTATG	0.12
GTCTTCACGTGGGAAT	0.31
CTTTACACGTGGCTGG	0.1
AATCGCACGTGTTGTG	-0.07
CTTTTCACGTGTCTGT	0.29
GGGTACACGTGTTCTT	0.14
TTAGGCACGTGAGCGC	0.22
ATTGGCACGTGGTTAG	-0.15
GTAGACACGTGGGGAT	-0.12

Sequence	relative binding free energy [kcal/mol]
GTTTGCACGTGCTGCT	-0.11
TAGGGCACGTGTAATA	0.16
TGTTTCACGTGGAGAA	0.31
GGTATCACGTGAGGCA	0.23
GATTGCACGTGGCGTA	0.05
GTTCGCACGTGGGGGC	-0.18
TTATTCACGTGTCGGT	0.36
ATTTTCACGTGGAATA	0.32
GAGGACACGTGTGGTA	0
CTGGGCACGTGTTTTT	-0.03
TTTGACACGTGTGACG	0.03
TGGGCCACGTGAGCGT	0.05
GTAGGCACGTGCAGTA	-0.06
TGGTTCACGTGGGCTC	0.2
GTAAGCACGTGGGTTG	-0.23
GGATTCACGTGTATCG	0.29
AAAGTCACGTGGGAAA	0.25
GGATACACGTGGTGCG	-0.13
TCGGTCACGTGACGTT	0.12
TTAGTCACGTGGGCAG	-0.19
AGTTTCACGTGTGGCG	0.32
TTGACCACGTGAAGTG	0.26
AGAGGCACGTGTGGCC	0.11

Sequence	relative binding free energy [kcal/mol]
TGAAGCACGTGGAGGG	-0.1
GTTTTCACGTGTTAAC	0.49
GGAGACACGTGTTTTA	-0.01
GGGTGCACGTGCTTAT	-0.09
TATTCCACGTGTTATA	0.07
AAGTGCACGTGAAAGG	0.24
CAAGTCACGTGGAGTA	0.18
GGCGGCACGTGGTGTA	-0.13
TATATCACGTGCTATT	0
AGTTTCACGTGATAAT	0.27
GTCGACACGTGCGGTG	0.04
TGGAGCACGTGGTTAT	-0.06
TGGCACACGTGGCTGG	-0.12
TGTTTCACGTGGTATG	0.17
TTGGGCACGTGCGCTA	-0.16
GTTAGCACGTGGAAGG	0.08
GAGAGCACGTGTAGTG	-0.01
TTAATCACGTGATTAG	0.18
CGTTACACGTGTGGGA	0.1
AGGGTCACGTGCTTGA	0.09
AGTGTCACGTGAAAAG	0.06
AATGTCACGTGTGGCG	0.09
GGTAACACGTGGTACT	0.18

Sequence	relative binding free energy [kcal/mol]
TAGGGCACGTGAGAGA	0.21
CTGGTCACGTGCATGT	0.1
TCCTGCACGTGTTGGT	0.08
TAGAACACGTGTGGGA	-0.03
TTAATCACGTGTTATC	0.21
CTGTACACGTGGGGAT	-0.01
TTTGGCACGTGACTGA	0
TTATGCACGTGTTTGG	-0.02
GTGTTCACGTGCAATT	0.24
GGTATCACGTGACAGT	0.24
ACTTGCACGTGTAATT	0.08
ATGATCACGTGTTGTG	0.18
TGGTACACGTGTCGTC	0.18
AGTAGCACGTGATTTA	-0.01
TTTGCCACGTGGGGCG	-0.26
AGCTTCACGTGTAAGG	0.34
TGGGTCACGTGTCCGA	0.19
GACTGCACGTGTAGGG	-0.05
ATTCTCACGTGTTTGT	0
GGCAGCACGTGCGGGG	-0.18
GTAAACACGTGTAGGT	0.15
CTGGACACGTGGTTGG	0.04
AGGCACACGTGGTAGT	0.04

Sequence	relative binding free energy [kcal/mol]
CATAGCACGTGGGAGA	0.03
GTTTGCACGTGCTTTG	-0.06
CAAGGCACGTGTATTG	-0.03
CGGTGCACGTGGTAAG	-0.02
TAGAACACGTGGTCTG	0.08
TATTTCACGTGTGGAA	0.36
AAGTGCACGTGCGTGA	-0.11
TTGCTCACGTGGGTTA	0.2
GTATACACGTGGGCTT	0.05
AGTTGCACGTGGTAAT	0.03
TATCCCACGTGTGGTT	0.07
TTTTGCACGTGAGCAG	0.15
TTGTTCACGTGCATAG	0.22
TGAGGCACGTGTGTCT	0.03
GGTCTCACGTGTGTAG	0.22
AGTTTCACGTGGTTTA	0.22
TTGCTCACGTGGGCTG	0.06
TTGTGCACGTGGTAAA	-0.02
TAAGTCACGTGATTAT	0.21
GTGTGCACGTGGGTAA	-0.12
AAAGGCACGTGAGGGC	0.14
TCGAGCACGTGAAGGT	0.29
GTAGGCACGTGAGGTT	0.23
